The supplement of paper PMC12217912
Some of the results follow. The full chains were built here from the parent and the listed change. Inactive controls read about 0.05.

B1: TEV protease; numbered along this chain (parent)
chain: MGESLFKGPRDYNPISSSICHLTNESDGHTTSLYGIGFGPFIITNKHLFRRNNGTLVVQSLHGVFKVKDTTTLQQHLVDGRDMIIIRMPKDFPPFPQKLKFREPQREERICLVTTNFQTKSMSSMVSDTSCTFPSGDGIFWKHWIQTKDGQCGSPLVSTRDGFIVGIHSASNFTNTNNYFTSVPKNFMELLTNQEAQQWVSGWRLNADSVLWGGHKVFMVKPEEPFQPVKEATQL

Variants of: B1
Test: raw area under fraction-flipped curve 0-4 h after induction (AUC4h, not background-subtracted), DNA-recorder readout of cleavage of the substrate (dimensionless); higher = more cleavage of the substrate by the protease variant
Settings: temperature: 34 °C; time window: 0-4 h after rhamnose induction
Experimental: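 In vivo DNA recorder in E. coli TOP10(DE3) ΔrhaA at 34 °C. Each TEVp single-site mutant (parent TEVp 0) is paired with a single-site variant of the 7-mer TEVs (canonical ENLYFQ|S). The substrate sits between flexible linkers in a Bxb1-sfGFP-TEVs-SsrA fusion, so cleavage stabilises Bxb1 and speeds flipping of a recombination array, read by NGS. The value is the raw area under the fraction-flipped curve over 0-4 h after rhamnose induction (AUC4h), with ≥20 reads per time point. It is not background-subtracted; inactive controls average about 0.047.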
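Also: Bxb1 expression induced with 0.2% (w/v) L-rhamnose at OD600 near 0.5, cultures sampled hourly, flipped fraction per protease–substrate barcode pair counted by paired-end Illumina sequencing.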

Row | Variant | area with substrate ENLYAQS | area with substrate ENLYDQS | area with substrate ENLYHQS | area with substrate ENLYIQS | area with substrate ENLYKQS | area with substrate ENLYMQS | area with substrate ENLYNQS | area with substrate ENLYPQS | area with substrate ENLYQQS | area with substrate ENLYRQS | area with substrate ENLYSQS | area with substrate ENLYTQS | area with substrate ENLYVQS | area with substrate ENLYEQS | area with substrate ENLYGQS | area with substrate ENLYWQS | area with substrate ENLYYQS | area with substrate ENLYCQS | area with substrate ENLYLQS
1 | E25I | 0.067 | 0.0435 | 0.067 | 0.108 | 0.0526 | 0.0698 | 0.069 | 0.0715 | 0.0649 | 0.0485 | 0.0732 | 0.086 | 0.116 | – | – | – | – | – | –
2 | K216P | 0.0674 | 0.0693 | 0.0652 | – | 0.0651 | 0.0782 | – | 0.05 | 0.077 | 0.0786 | – | – | – | 0.0768 | 0.0391 | 0.0758 | 0.0523 | – | –
3 | K216N | 0.064 | 0.0638 | 0.062 | – | 0.0601 | 0.0724 | 0.0589 | 0.0882 | 0.0602 | – | 0.0714 | – | – | 0.0738 | 0.0845 | 0.0709 | 0.0646 | 0.0597 | 0.0637
4 | W212E | 0.0506 | 0.0569 | 0.0615 | – | 0.0464 | 0.0751 | 0.0586 | – | – | 0.0655 | – | 0.0597 | 0.0844 | 0.0612 | 0.0562 | – | 0.116 | – | 0.0629
5 | W212V | 0.0714 | 0.0504 | 0.0728 | 0.078 | 0.0614 | 0.0862 | 0.0604 | 0.0741 | 0.0747 | 0.0575 | 0.074 | – | – | 0.0664 | 0.0655 | 0.0931 | 0.153 | 0.0972 | 0.0731
6 | D11E | 0.0583 | 0.0649 | 0.0599 | 0.125 | 0.0613 | 0.0601 | 0.048 | 0.0686 | – | 0.0497 | – | 0.0755 | 0.11 | 0.0661 | 0.0781 | 0.111 | 0.0655 | 0.0776 | 0.0801
7 | C152T | 0.0537 | 0.0542 | 0.0561 | 0.0538 | – | 0.057 | 0.0596 | 0.0636 | – | – | 0.0535 | – | 0.0553 | 0.0572 | 0.0664 | – | – | – | –
8 | W144A | 0.0574 | – | 0.0782 | 0.139 | 0.0709 | 0.112 | 0.0683 | 0.0613 | 0.0939 | 0.0623 | 0.0877 | 0.0728 | 0.188 | 0.12 | – | – | 0.0647 | – | 0.064
9 | S123W | 0.0815 | 0.0699 | 0.0654 | 0.141 | 0.0364 | 0.089 | 0.0749 | 0.0732 | 0.0651 | 0.0504 | 0.067 | 0.104 | 0.109 | 0.0691 | 0.0492 | 0.0826 | 0.0571 | 0.094 | 0.12
10 | E224D | 0.1 | 0.0598 | 0.083 | 0.133 | 0.0613 | 0.0775 | 0.0717 | – | – | 0.0467 | – | – | – | 0.0903 | 0.0663 | 0.171 | 0.0613 | 0.0662 | 0.0845
11 | T176P | 0.0639 | 0.0511 | 0.067 | 0.0642 | 0.0669 | 0.0615 | 0.0642 | – | 0.0581 | 0.0468 | – | 0.0547 | 0.0495 | 0.0633 | 0.0684 | – | – | – | 0.063
12 | N186V | 0.0593 | 0.0595 | – | 0.0998 | – | – | 0.0614 | 0.0681 | – | 0.0609 | – | – | – | 0.048 | – | 0.072 | 0.0716 | – | –
13 | T44R | 0.0641 | – | 0.041 | 0.0435 | 0.0233 | 0.048 | 0.0454 | 0.0562 | 0.0391 | 0.0428 | 0.0436 | – | 0.034 | 0.0518 | 0.0414 | 0.0525 | 0.0631 | – | –
14 | S32C | 0.0781 | 0.0672 | 0.0745 | 0.131 | 0.0582 | 0.0552 | 0.0707 | 0.0776 | 0.0733 | 0.0558 | 0.085 | 0.0883 | 0.0875 | 0.0684 | 0.0689 | – | – | 0.104 | –
15 | S32T | 0.0713 | 0.0703 | 0.0722 | 0.141 | 0.0588 | – | 0.0349 | 0.0772 | 0.0632 | 0.0622 | 0.0602 | 0.0712 | 0.122 | 0.0577 | – | 0.0881 | – | 0.115 | 0.0719
16 | G150T | 0.0539 | 0.059 | 0.0683 | 0.0622 | 0.0593 | 0.0573 | 0.0572 | 0.0506 | 0.0594 | 0.0625 | 0.0591 | 0.0587 | 0.0526 | 0.063 | 0.0638 | 0.0576 | 0.0726 | 0.0918 | 0.0661
17 | L112T | 0.0531 | 0.0521 | 0.0514 | 0.0801 | – | 0.0605 | 0.0504 | 0.0612 | 0.0716 | 0.0559 | 0.0657 | 0.0835 | 0.0605 | 0.062 | 0.052 | – | 0.0583 | 0.0316 | –
18 | N52G | 0.0568 | 0.0912 | 0.0474 | – | 0.0521 | 0.067 | 0.0571 | 0.0592 | 0.0536 | 0.0562 | – | 0.067 | 0.0816 | 0.0625 | 0.065 | 0.0644 | 0.0476 | – | 0.0677
19 | R204I | 0.0715 | 0.0535 | 0.0669 | – | 0.0701 | 0.0888 | 0.0733 | 0.0775 | – | 0.0698 | 0.0765 | 0.0889 | 0.121 | 0.0618 | 0.0718 | 0.0774 | 0.0571 | 0.0853 | 0.0533
20 | K120A | 0.0696 | 0.0687 | 0.0644 | 0.128 | 0.0591 | 0.0931 | 0.0656 | – | 0.029 | 0.0663 | – | 0.129 | 0.0864 | 0.0735 | 0.0551 | 0.0811 | 0.0499 | – | –
21 | K120N | 0.0731 | 0.058 | – | 0.107 | 0.0628 | 0.0606 | – | 0.0788 | – | 0.069 | 0.0667 | – | 0.138 | – | 0.0874 | – | – | – | –
22 | K120D | 0.0779 | 0.0748 | 0.0664 | 0.102 | – | 0.0863 | 0.0701 | 0.0838 | – | – | – | – | – | 0.0747 | – | 0.0535 | – | 0.0876 | –
23 | K120C | 0.0687 | 0.0615 | 0.0723 | 0.0903 | 0.0614 | 0.0887 | 0.0744 | – | – | – | – | – | – | 0.0715 | 0.0708 | 0.0721 | 0.0859 | 0.0865 | –
24 | R102Y | 0.0368 | – | 0.0481 | – | 0.0263 | – | 0.0451 | 0.0267 | 0.0297 | – | – | 0.0301 | 0.04 | – | 0.05 | – | 0.0383 | – | 0.0098
